According to the supplement of paper PMC11417369:
± gives the standard deviation of the averaged measurements. The list shows a part of the results.

Tested on: PfAP2-LT AP2 domain (GST-tagged)
Test: gcPBM binding intensity (ln(normalized median fluorescence intensity)); higher = stronger DNA binding
Method in brief: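 GST-tagged P. falciparum DNA-binding domains produced in E. coli were incubated for 1 h on an Agilent 4 × 180k array of primer-extended double-stranded 36-bp intergenic genomic probes with negative controls. Binding intensity is the highest Masliner-normalised natural-log median intensity across replicate spots of either probe orientation, with bound protein detected by Alexa488 anti-GST antibody at 488 nm.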

Row | Sequence | gcPBM binding intensity (ln)
1 | TTGTACATCTTTTGCACACGTAATGTTATTAAAATA [CACACA_site4827] | 8.89 ± 0.38
2 | TGTATATTTGTTGTTACACACATATATTTTTTTTTT [CACACA_site128] | 8.96 ± 0.43
3 | TTATTGTAAATATATGCATGTGCAAAATGAAAAAAA [TGCATGCA_site399] | 8.77 ± 0.52
4 | TTTTAAACAAGACACACACACATATATATATATATA [CACACA_site925] | 9.84 ± 0.11
5 | ATGTTTACATATTAGGGTACATAATAAATTGCATAT [XGTACX_site6712] | 8.66 ± 0.38
6 | CATGTATTTTATATTACACACTAATATTATATATAT [CACACA_site1508] | 8.85 ± 0.35
7 | GAATGTATAAAATGAACACACGCCAAATTAAATGAA [CACACA_site3044] | 9.12 ± 0.42
8 | AAAAATAATGCACATATATATAATATGTATATGTAT [CACACA_negctrl_site443] | 8.92 ± 0.45
9 | AAAAAATTAAATAATTACAAAAAAATAAAATAAAAA [GTGCAC_negctrl_site638] | 8.48 ± 0.67
10 | AATAAACAAATATGTACACACATATACCTATAAATA [CACACA_site7358] | 9.17 ± 0.37
11 | ATATTAGATTAATTTACACACAGAAAATGAGATTTT [CACACA_site541] | 8.77 ± 0.39
12 | CCAACATATATTATCACACACATATATATATATATA [CACACA_site2016] | 9.69 ± 0.24
13 | TAGAGTATATATAAATGTACATATTTTATGCTAATT [XGTACX_site7821] | 8.69 ± 0.45
14 | AAACAATACATATATTGTACATATATTATATTATAT [XGTACX_site8136] | 8.88 ± 0.43
15 | AATTTGAAATAAAGTAGTACAGTATATAAAAATATA [XGTACX_site128] | 8.73 ± 0.46
16 | TTAGAAATTCATTTTACACACAATTCAAAAGAATGT [CACACA_site2104] | 8.79 ± 0.42
17 | CGGATCTATAAGTGTACACAATCTAGCGAAAAGTTT [CACACA_site4932] | 8.88 ± 0.42
18 | AAAAAATCAAAACACACACACACACCCAAAAAAAAA [CACACA_site1444] | 10.2 ± 0.37
19 | ATAATGATTATAATATGTACATAAATATATATATTA [XGTACX_site5029] | 8.74 ± 0.47
20 | AATAAATAAACAAATTAACACACAGAATTTTTTTTT [CACACA_site8485] | 8.79 ± 0.43
21 | ATTATGTTATATATATGTACATATATAATGTTCATA [XGTACX_site6184] | 8.79 ± 0.35
22 | ATAATTATAAAATAAACACACATATATATTTATATG [CACACA_site440] | 8.74 ± 0.43
23 | ATAAAATAAAAAAGTAGTACACACTTCACGATATTT [XGTACX_site8289] | 8.96 ± 0.46

Row | Sequence | gcPBM binding intensity (ln)
24 | TAAGAATTGAAAAAATGTACACAATATAAAATTGAA [XGTACX_site698] | 8.61 ± 0.54
25 | CCTATTTATTTATACACACACATATATAAATAAATA [CACACA_site7417] | 9.04 ± 0.31
26 | AAAACAAATAAGTAAACACACATATAAAATCTATAT [CACACA_site7262] | 9.18 ± 0.48
27 | TTATGTAAATGCTTATGTACTTATTACAATATTTTT [XGTACX_site4057] | 8.81 ± 0.56
28 | TTTATTACTATGTAAACACACATGCAATATATGTTA [CACACA_site1114] | 8.81 ± 0.42
29 | AAAAAGAAAAAAAAATGTACATAAAGTCTAATGATA [XGTACX_site4781] | 8.78 ± 0.49
30 | ATATTATATAAATACACACACACATGCATGCACATA [CACACA_site4236] | 9.92 ± 0.24
31 | AAAAAGAATAAATAAATAAATAAATATATATATATA [GTGCAC_negctrl_site584] | 8.91 ± 0.4
32 | TATTAATCATATAAATGTACGTATATATATTTTTCT [XGTACX_site1421] | 8.71 ± 0.48
33 | ATATATATATATATAACACACGTGTATATATATGTA [CACACA_site3644] | 9.51 ± 0.35
34 | TATAATATATTATAACGTACAAATATATATATAAAA [XGTACX_site6581] | 8.75 ± 0.47
35 | CAATCATAGAAAAACAGTACGTGTAGCAAACATCCT [XGTACX_site4889] | 9.07 ± 0.29
36 | AAAAAAAAAAAATATATATATATATATATATATATA [CACACA_negctrl_site1606] | 10 ± 0.22
37 | TATATATATTATATATGTACATATATTTTTTTTTTT [XGTACX_site127] | 8.77 ± 0.49
38 | ATTTATATTACAAAAAGTACACACATAAATAAATAC [XGTACX_site1827] | 9.06 ± 0.21
39 | GAAAATATAAAAAAAAGTACATTTTCTCTAAATATA [XGTACX_site2441] | 8.53 ± 0.57
40 | AAAAAGGGTATTATTACACACACGTAAATATTAAGA [CACACA_site4233] | 9.26 ± 0.47
41 | AAAAAAAAATTATATACACACATATAAATATATATA [CACACA_site1197] | 8.79 ± 0.42
42 | CTATATAATATGAGCACACATAAGATTTGGTGTTAT [CACACA_site744] | 8.93 ± 0.34
43 | AAAATCTAGGTATTTATACACACTAAAATAATATAC [CACACA_site623] | 8.92 ± 0.4
44 | CAAATACAGAAACACACACACATATACATATATATA [CACACA_site3498] | 9.77 ± 0.19
45 | TATATATATATATGGGGTACAAATGGTCAGTATTAT [XGTACX_site1223] | 9.66 ± 0.21
46 | AATATGTAATAGTGTACACATATATCTGTATTTATG [CACACA_site4252] | 9.02 ± 0.4

Row | Sequence | gcPBM binding intensity (ln)
47 | TTTAAATATAATTGGAGTACTTATAATATATATATA [XGTACX_site7247] | 8.39 ± 0.42
48 | ATTACACATATAGTAGTGCAATAACTCCAAAAAAAA | 8.78 ± 0.42
49 | ATGTTATTAAAAAAGGGTACACATCTTTTATGTTAA [XGTACX_site812] | 8.57 ± 0.31
50 | TTTTAAAAAAAAAAAAAAAAAAAAAAAAAAAAAAAA [CACACA_negctrl_site1343] | 7.9 ± 0.23
51 | TTTTAAAATTATTAGGTGCATATTTATTCTATATTT | 8.62 ± 0.47
52 | TGTTTTTTTATTTTCACACATAATCCAATTATACAT [CACACA_site6070] | 8.95 ± 0.47
53 | TGCAATGGAGCATAAAGTACATATAATTGTATTTTT [XGTACX_site7349] | 8.74 ± 0.47
54 | AATACAGAGGAAAATACACACGTATATATATAAATA [CACACA_site9125] | 9.18 ± 0.46
55 | TAGAATAATCCTTACACACACACACCCACGAATAAA [CACACA_site483] | 10.1 ± 0.2
56 | ATCAACAAAACATACACACACATATATATATATATA [CACACA_site2989] | 10.32 ± 0.057
57 | GCATCTCATTTGTGATGTACTATATTATCCGTTTTT [XGTACX_site7576] | 8.87 ± 0.43
58 | TTTCTATATCTATTTAATTAACTTTTTATACTGATT [GTGCAC_negctrl_site415] | 8.65 ± 0.42
59 | CACATAAAAAAATAAACACACATATGTATTTATATA [CACACA_site5718] | 8.91 ± 0.44
60 | CATATCATTGATTATAGTACACATACCATTTTTTAT [XGTACX_site6572] | 8.91 ± 0.47
61 | TTAAAAAAATATAGAGCATGCTAAAAATAAAAAAAT [TGCATGCA_site794] | 9.1 ± 0.62
62 | AATAAAAATAATATAGTGCATAATATAAGGAAAAAA | 8.93 ± 0.45
63 | CAACACTTAGATTTTAAGTTCACTGGTTAATATATA [CACACA_negctrl_site707] | 8.55 ± 0.38
64 | AGGTCTATATAATAAGTGCATTTTTTTTTTTTTTTT [GTGCAC_site9664] | 8.6 ± 0.34
65 | GTTATACTCATCAACACACACATACAACGTGGTGTA [CACACA_site4789] | 9.29 ± 0.33
66 | AAAAAAAAAAAAAAATACAAGCACATTTATATAAGC [GTGCAC_negctrl_site695] | 8.67 ± 0.47
67 | AGTAATATAATATAAGCACACGTGTATTTATTTAGG [CACACA_site7921] | 9.08 ± 0.44
68 | TATATATCAATATTTACACACATGCGCCCACATAAA [CACACA_site7185] | 9.33 ± 0.42
69 | AAATACATTAAAATGACATGCAGATATATATCAAAA [TGCATGCA_site477] | 9.01 ± 0.41

Row | Sequence | gcPBM binding intensity (ln)
70 | TATATGTTTGAATATACACACAACATATTTATATAT [CACACA_site7832] | 8.9 ± 0.41
71 | AAAAAAAAAAAATATGTACACACATATATAATACAT [CACACA_site8473] | 9.09 ± 0.35
72 | TTTTTTGTTAAAAGAGTGCAAATTTTTAAAGATTTG [GTGCAC_site9502] | 8.1 ± 0.46
73 | CTATGCCCCATATAAACACACAAATAAAAAGAATAT [CACACA_site2681] | 9.09 ± 0.39
74 | TTTTTTTCTTTTGGGAGTACCAACATTTTCACATAT [XGTACX_site1371] | 9.09 ± 0.56
75 | TGAATAAAGATATATACACACATATAGGTATATATC [CACACA_site6870] | 9.01 ± 0.41
76 | AAAAAAAAAAGACACACACACACAAATACATACACA [CACACA_site6472] | 10.2 ± 0.042
77 | ATCTAAATAAAGTTAACACACACATAATATATATAT [CACACA_site8055] | 9.19 ± 0.4
78 | TGCTTATATTTTTATACACACAAGATACTTTTTGTT [CACACA_site1535] | 9.04 ± 0.52
79 | AATAAAAAGGAACACACACACACACGGATATAAATA [CACACA_site7658] | 10.3 ± 0.37
80 | TCTTTGTAAATTTCTTGTACGTAAATTTTTTTTAGG [XGTACX_site7062] | 8.55 ± 0.35
81 | TCATAGTATAGACACACACACACACGCATATAAATA [CACACA_site6915] | 9.92 ± 0.13
82 | TATTTTACATCTTCTCACATTTTATCACTTTTTAAA [CACACA_negctrl_site330] | 8.71 ± 0.52
83 | TGTATATATAAACATGCACACGTGGTTGTATATATA [CACACA_site9078] | 9.02 ± 0.25
84 | AGAATTCGTTTAAAAAGTACATTCAATTTAATAATG [XGTACX_site6603] | 8.39 ± 0.45
85 | TAGTATTAAAATATTTGTACTTATATGTATTATATA [XGTACX_site538] | 8.66 ± 0.44
86 | TGTAGTCTGGAGAAGAGTACACAGTATCTGGTAACA [XGTACX_site2038] | 8.69 ± 0.54
87 | AATATTTTAAAAAAAAGTACATTATATATATATGTT [XGTACX_site8073] | 8.44 ± 0.45
88 | AAAGAAATGAAATATACACACATACATAAATACATA [CACACA_site6081] | 9.26 ± 0.35
89 | ATAAAGGAAATTACAAGTACAAATAAGATAAAATAA [XGTACX_site4514] | 8.82 ± 0.67
